Results from the supplement of paper PMC3334620.
In all, about 33,000 sequences were measured (“E-score (-0.5 to 0.5)”: median about -0.053, highest 2% from about 0.37 on). The list shows a part of the results.

target: Hap1 (UniProt P0CE41); assay: PBM E-score (8-mer binding enrichment) (E-score (-0.5 to 0.5)); higher = stronger / more preferred TF binding; most listed sequences are background and not binding sites; details: protein concentration: 200 nM; construct: GST-DNA-binding domain
Outline: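 Yeast transcription factors carrying a GST tag, as full-length proteins or DNA-binding domains, were produced by PURExpress in vitro transcription/translation. About 100-200 nM protein was applied to universal all-10-mer Agilent arrays, double-stranded by primer extension on fresh or once-stripped slides. Bound protein was detected with fluorescent anti-GST, and scans were normalised with masliner. The Universal PBM Analysis Suite gave each ungapped eight-base word, pooled with its reverse complement, an E-score, a modified Wilcoxon-Mann-Whitney statistic.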

Chain of UniProt P0CE41 (P0CE41 whole entry, the tested form may be a part): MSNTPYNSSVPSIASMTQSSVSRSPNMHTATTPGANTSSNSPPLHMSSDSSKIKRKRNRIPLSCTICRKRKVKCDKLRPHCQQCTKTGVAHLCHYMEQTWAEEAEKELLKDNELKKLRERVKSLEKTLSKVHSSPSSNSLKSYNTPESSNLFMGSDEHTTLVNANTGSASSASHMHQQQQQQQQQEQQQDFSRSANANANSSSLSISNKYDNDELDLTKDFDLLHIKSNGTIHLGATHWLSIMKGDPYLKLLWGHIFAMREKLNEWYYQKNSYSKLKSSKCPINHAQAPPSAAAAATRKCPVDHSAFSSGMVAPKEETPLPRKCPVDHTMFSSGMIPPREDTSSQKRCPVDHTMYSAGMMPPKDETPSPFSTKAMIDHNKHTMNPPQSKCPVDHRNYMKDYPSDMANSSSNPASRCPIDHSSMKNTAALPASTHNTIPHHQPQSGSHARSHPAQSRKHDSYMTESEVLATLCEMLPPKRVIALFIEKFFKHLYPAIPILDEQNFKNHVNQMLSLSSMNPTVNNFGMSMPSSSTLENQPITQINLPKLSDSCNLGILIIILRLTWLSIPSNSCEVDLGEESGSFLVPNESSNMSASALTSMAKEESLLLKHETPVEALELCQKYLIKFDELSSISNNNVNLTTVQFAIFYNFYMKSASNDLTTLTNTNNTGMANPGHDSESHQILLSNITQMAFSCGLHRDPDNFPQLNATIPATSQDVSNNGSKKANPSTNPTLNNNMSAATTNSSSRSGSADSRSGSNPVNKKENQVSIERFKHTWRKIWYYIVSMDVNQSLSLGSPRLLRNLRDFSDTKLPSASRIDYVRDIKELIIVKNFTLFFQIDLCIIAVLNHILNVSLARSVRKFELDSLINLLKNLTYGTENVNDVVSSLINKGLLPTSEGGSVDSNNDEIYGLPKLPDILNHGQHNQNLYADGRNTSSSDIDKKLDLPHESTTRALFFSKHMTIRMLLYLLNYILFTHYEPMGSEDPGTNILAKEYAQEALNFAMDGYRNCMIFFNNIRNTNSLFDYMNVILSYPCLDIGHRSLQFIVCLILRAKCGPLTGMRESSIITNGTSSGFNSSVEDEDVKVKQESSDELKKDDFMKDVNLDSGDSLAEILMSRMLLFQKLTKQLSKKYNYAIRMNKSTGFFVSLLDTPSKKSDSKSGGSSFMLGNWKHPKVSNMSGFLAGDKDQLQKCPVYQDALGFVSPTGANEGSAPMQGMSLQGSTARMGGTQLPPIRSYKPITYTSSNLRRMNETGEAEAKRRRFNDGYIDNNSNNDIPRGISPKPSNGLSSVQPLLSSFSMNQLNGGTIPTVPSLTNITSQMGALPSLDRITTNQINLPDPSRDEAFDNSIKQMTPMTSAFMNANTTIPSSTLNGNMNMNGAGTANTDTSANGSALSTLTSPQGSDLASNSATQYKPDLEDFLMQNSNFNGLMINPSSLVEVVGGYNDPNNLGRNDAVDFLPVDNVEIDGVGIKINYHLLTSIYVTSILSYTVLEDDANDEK

Sequence	PBM E-score
ACTTAGCC	-0.107
AATGTGTG	0.00167
CGCTGTTA	0.273
CCCTTACA	-0.191
CCGAGTGC	0.272
AATCCTGA	-0.161
CATGTTCA	-0.207
ATTAGTAA	0.0833
GAGCCCTA	-0.123
ATCGTTCG	0.113
CACGAATC	0.0946
CGTATACA	-0.168
CATCCATC	0.018
GCGTCGAC	0.00401
GTTCTTGA	-0.308
CTACATTC	-0.0459
GGAAAACC	0.14
GCCCGTCA	0.125
ATTGGGAA	-0.133
CTATTCCC	0.16
TGCTTTAA	-0.055
GACGTTCA	-0.15
GCGGCCCA	0.147
AACGACTC	-0.207
CAGCGCGC	0.057

Sequence	PBM E-score
ACCGGCAG	0.187
CTGGAAAC	-0.175
GCTACACA	-0.328
CATGAGTC	-0.145
TAGAGCCA	-0.232
AATGAATC	-0.142
CACTTCTG	-0.262
CATTTTTA	-0.0317
CACTAATC	0.155
AGCTGCTA	-0.265
GCTACGAC	0.103
TATCCGCA	0.253
GAGAATCA	-0.0525
ATTCCAGA	0.0508
CATGGGGA	0.055
GATGTCAA	-0.119
CATGCTCC	-0.0921
AGTGCGGG	0.139
CTTTTGAC	-0.126
AGAACAGA	0.00492
TGGAAAAA	-0.126
CGACCAAG	-0.154
AGTACTAG	-0.161
CTCTTCAG	-0.242
GCCGTTTA	0.136

Sequence	PBM E-score
CCTACGGA	0.232
CGTTTGTA	-0.122
GAAGTGGC	-0.0295
ATGTTCAC	-0.12
AGGCGCTG	0.0376
CCGACATC	0.278
AGACCTCC	-0.0226
ACGTACGC	-0.0901
GTAAGTTA	0.022
ATCTGGTA	-0.145
CAAGCATC	-0.038
ACAAGGAC	-0.33
CGTTATTA	0.267
CTCGTCTC	-0.0915
AGGGAATA	0.127
TATATATA	0.221
ATGCATGG	-0.0424
AATGGGAC	-0.0886
CACGATCG	-0.00398
GTGAGCAC	-0.232
CAGGTGCA	-0.0951
CAACATAA	-0.0444
CAAATCGG	0.3
CACGCTCG	-0.0319
CTTTGTTA	-0.09

Sequence	PBM E-score
AGCGCCCC	-0.0264
ACCCGTCA	0.155
AGTGCAAA	-0.197
ATTATGAC	0.0596
CGGGACCC	0.153
CTTGAGGA	-0.0799
CAGCTAGG	-0.235
CACGTCTG	-0.107
ACGTCACA	-0.23
CGATATAG	0.21
CGGTGAAC	0.0875
GGGCGACC	0.0377
GCGGAACA	0.22
AAATACAC	-0.135
CAACTGCA	-0.318
CCTCAGGC	-0.0905
ACCCTTAC	-0.104
CGATAAAA	0.382
CTTTCAAC	-0.15
AACCTTGC	-0.119
GTCGTCCA	0.0593
ACATATGA	-0.146
CGGACTCC	0.306
AGGGTTAG	-0.155
AAGACCGG	0.333

Sequence	PBM E-score
AGGTCATA	-0.13
GGACTAAC	0.239
CAGTCGAG	-0.184
ACATAAAT	-0.0976
AAAGAATG	-0.0307
GACCTGGA	-0.021
AACCTCCT	-0.237
GCCCCACC	0.0115
CAATCCGA	0.241
AGTGGCCC	0.182
AGCCTAAC	-0.0527
AGAAGATC	0.0834
CCCCGGGA	0.348
ACTACCCA	-0.204
CCTGCGGC	0.059
AAACCACC	0.023
CCGAGCTC	0.266
AGCAACAT	-0.111
CCAGTGCA	-0.32
TTACAAAA	-0.0538
ATAATCAC	-0.0425
GGCCCAGA	0.0578
AAGCCGAT	0.399
CCGTGCTC	0.144
CCTCGTCC	0.0893

Sequence	PBM E-score
CCTCTGAA	-0.0581
GGTATGAC	0.0931
ATATGTTC	0.13
CATGCTGG	-0.321
CTCTGATC	-0.225
ATCCAAGA	-0.0776
CGCCAAAA	-0.0116
ACTTCGAC	-0.105
GACGAGCA	-0.214
ACGACAGA	-0.184
GTGGAATA	-0.0626
ACTCCGCG	0.371
TGAGATAA	0.0866
TATTCCAA	-0.162
TCGACCAA	-0.331
GTGGCGTA	-0.0342
GCGTAGAC	-0.131
CTGTTACC	-0.0599
ACCGGCGC	0.267
ATGTTGTG	-0.222
CATTCTTA	0.0589
AGGAACTG	-0.0516
ACCGCCAA	0.0105
GGCAGCCA	-0.0898
CCTTCTTA	-0.138

Sequence	PBM E-score
CAGATCCC	0.0493
ATAAGATC	-0.174
CACAACCG	0.145
CTACTTGA	-0.243
ATGTGGAC	-0.149
GCTCTAGA	-0.0593
ATGGACGA	0.0824
ACCAAAAC	-0.0677
ACCGGGAG	0.26
ATGTCTCC	0.228
TAACACTA	-0.0807
GGACCGGA	0.406
AGGACCGG	0.318
GAATATCA	0.079
CGTGAAGA	-0.0699
CTGGACGC	-0.168
CCTCCAGC	-0.214
ATATACAT	-0.035
GAAACTAC	0.023
CATTGTAG	-0.16
CTTGTTCC	-0.00285
ATTGTTTA	-0.209
GAACACTA	-0.0849
AGGTATTG	-0.104
ACGACCTC	0.0239

Sequence	PBM E-score
CTGTGAAA	-0.195
ATAGTTCG	0.0165
CAGGCTAG	-0.279
ACGCACGA	-0.113
CGTGTCAG	0.0219
AAATTCCT	0.099
ACAGTCAA	-0.214
ACGTTACT	-0.0694
CATTGTCG	-0.00901
TCAAAGCA	-0.0871
AACACAAA	-0.111
GCGAGCTA	0.0832
AGAGTAAA	-0.211
ATAGTAAC	-0.0441
GGACGCAA	0.229
ATGCGTCC	0.157
CGCTACGA	0.111
CGTGCCCC	-0.175
CTCGAACC	-0.0843
CACAGGAG	-0.225
CTGTGTGC	-0.273
TAACAGTA	-0.172
CCCGACCC	0.167
ACTATATA	-0.024
ACCGAGTC	0.0947

Sequence	PBM E-score
ACCGACAG	0.289
CTGATAAA	-0.113
AGGCCCAG	-0.157
GATAGCCA	-0.133
CATGCTAC	-0.155
GGCGGCCA	-0.0954
TATACTAA	-0.0609
ATATTCGG	0.223
ATTTACGC	0.0908
GCTTGCTA	-0.131
AGTTGAGA	-0.131
GGCGCCAA	0.0576
CGTCAGTC	0.0975
AAGTTTCA	-0.0722
CGCACACA	-0.0394
ATCGTCTG	-0.137
CCCGCGGG	0.318
GGACCGTA	0.0951
ACGTGCCA	-0.0995
GCACAGAA	-0.147
AGACGATC	-0.229
ACTGGGAC	-0.18
CCGGAGTA	0.435
CTGCGTTC	-0.0106
CATACCAA	-0.0543

Sequence	PBM E-score
GCACAGCA	-0.119
AACAACGT	-0.124
AGAATCAT	-0.259
CTCGAGCA	-0.185
CGGCCTTA	0.439
ACAAGTGC	-0.278
CTTCATCC	0.0444
ACAGATGA	-0.243
AACACCCT	-0.0622
ACGGGGAA	0.158
AAACCAGA	-0.24
AGCGATGC	-0.178
GCGTGGCC	-0.0847
ATTGGTAA	-0.0364
CAGAAACA	-0.181
GCAAACTA	-0.261
AATCCGAT	0.401
GGACTGAA	0.00891
CCAGTGTC	-0.196
ACACCTAA	-0.116
AGCGGTTC	-0.0758
ACGGAATG	0.108
TCATAAAA	0.00696
CCGCGGGC	0.306
CTAAATGA	-0.178

Sequence	PBM E-score
AAGCCCTC	-0.107
ACACATAC	-0.108
AAAGTGGT	-0.227
ATCAAGCC	-0.153
ATCTCTGA	-0.116
CCTAACCG	0.022
CAAAACGG	0.00507
GCTCTTCC	0.0685
AAACCGAC	0.198
ACTTGAAG	-0.332
ATTCATCG	0.0102
CGTGCCGC	0.0112
ACACTGAG	-0.187
GCTATTAC	-0.00619
GGGAATAC	0.181
GGATGCCA	-0.203
GGTCAGTA	0.0181
ACAGTCTA	-0.11
CCACTTGA	-0.131
TAGCACTA	-0.326
AGGTAAAT	-0.116
CGGGGCTC	0.188
GGTGATAA	0.378
CTAAACAA	-0.188
ATCCCCCG	0.366

Sequence	PBM E-score
ACCAACCT	-0.0487
CGAGGGGA	0.12
CGTTAATC	0.219
AAGTTGAC	-0.149
CATCACCC	0.174
ACAGCGCT	-0.0282
GGAGCAAC	0.157
CAAAAGCA	-0.0137
GTGAAAAC	-0.0296
AGCGAAGC	-0.0114
GGGAAACC	0.138
AAATCCGG	0.475
GAACCGAA	0.242
TTAATCAA	-0.0922
GTACTATA	-0.0145
CCGAGACC	0.318
CAGGAAAC	-0.153
AACTTACG	0.0891
AGTCCTTG	-0.177
GATGGCAA	0.0888
GGACGGAC	0.358
TAAAGCTA	-0.282
CGCCGCTA	0.332
AGTGCCCA	-0.0761
CCGAGACG	0.339

Sequence	PBM E-score
CGCAAGAA	0.16
AACTGCCG	0.182
ATCGTATC	-0.0262
GCAAGAAA	0.0211
AATACCGG	0.451
CGACTTTC	0.188
GCACAGTA	-0.177
CATGGGAC	-0.118
GCAGGGCC	-0.0879
AACGGTCA	0.246
CTAATATC	0.0996
GCCAGATA	0.0512
ACCATCAA	-0.222
CCGTCAGC	0.103
CTCACTAA	-0.257
AGCGCATA	-0.0711
AACTGCCA	-0.186
CGCTCAGA	-0.109
CCTTCGGA	0.364
AGCATACG	-0.0215
ATCCCACG	-0.101
CTTAGGTC	0.057
CCTATAGC	-0.124
ACGTCATA	-0.177
CCTCGCAG	-0.176

Sequence	PBM E-score
ACGCCAAT	-0.0288
ATTGTGAG	-0.0587
AATAGACG	-0.0186
CAGTCCGA	0.366
CCGTGGAG	0.193
CCTGCCCA	-0.221
CCCTCATC	-0.175
CTGTAAAG	-0.157
CATGCGAA	-0.00622
TAGATACA	-0.281
AAGGCGTC	-0.133
AACCACAG	-0.201
GTCGAGGA	-0.275
ACCATGCC	0.0287
CAGGCCGG	0.166
ACGAAATA	-0.0514
GCCGTACC	0.17
ATCGTCAG	-0.2
CTACTGCA	-0.404
